{"source": "PubChem BioAssay AID686979", "about": "(National Center for Advancing Translational Sciences (NCATS), 2013)", "note": "Several values for one entry are separate records, joined by “and”; a condition that tells them apart may be missing. Equal entries are not always repeated. Among all 420,000 compounds or so, about 50,000 (12%) were called active. The inconclusive results got no clear call from the source; some entries with a clear call stand among them for comparison. The call rests on the fitted dose curve; in most records, active means well fitted inhibition curve with a large enough effect; inconclusive means small, poorly fitted or top-dose-only effect; inactive means flat fitted curve, though single readings scatter. Where the call is inconclusive, the potency comes from a doubtful curve fit. On the % scale 0 is the no-effect control and ±100 the full control effect; potency means the concentration at half of the fitted maximal effect; tags describe the fitted curve by direction and shape."}
{"test": "qHTS for Inhibitors of human tyrosyl-DNA phosphodiesterase 1 (TDP1): qHTS in cells in presence of CPT; further: nearly all actives have a fitted effect of over 55% in size", "conditions": "chicken DT40 Tdp1-/-;hTDP1 cells + 20 nM CPT, ATP luminescence, 48 h; activity change, negative = growth inhibition: at 46.2 µM (top of the series) unless noted", "outline": "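Chicken DT40 Tdp1-/- cells complemented with human TDP1, 400 cells/well, exposed to compounds plus 20 nM camptothecin for at least 48 h at 37 C; viability read as ATP content by CellTiter-Glo luminescence.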"}
{"smiles": "O=C(CSc1nccn1Cc1ccco1)Nc1cc(C(F)(F)F)ccc1Cl", "Potency": "inconclusive: 29.1 µM [inhibitor, single point]"}
{"smiles": "CN(CC(=O)NCc1ccco1)CC(=O)Nc1c(Cl)cccc1Cl", "activity change, negative = growth inhibition": "inactive: -4.76%"}
{"smiles": "CCN(c1ccccc1)c1nnc(NC(=O)Nc2ccc(Br)c(C)c2)s1", "Potency": "active: 3.26 µM"}
{"smiles": "O=C(O)c1ccccc1Nc1ccnc(C(F)(F)F)c1", "Potency": "inconclusive: 29.1 µM [inhibitor, single point]"}
{"smiles": "O=C(c1ccc2c(Cl)c3c(nc2c1)CCCC3)N1CCN(c2cccc(C(F)(F)F)c2)CC1", "activity change, negative = growth inhibition": "inactive: -8.98%"}
{"smiles": "CCCn1nnnc1NCc1ccc(CC)cc1", "activity change, negative = growth inhibition": "inactive: -1.3%"}
{"smiles": "COc1ccc(C=O)cc1COc1ccc(Cl)cc1[N+](=O)[O-]", "Potency": "inconclusive: 23.1 µM [inhibitor, single point]"}
{"smiles": "CCOc1ccccc1NC(=O)CN(C)S(=O)(=O)c1cccc2nsnc12", "Potency": "inconclusive: 29.1 µM [inhibitor, single point]"}
{"smiles": "Cc1nc(C(F)(F)F)ccc1C(=O)N1CCC1(C)C(=O)NS(=O)(=O)c1ccccc1Cl", "note": "(stereo not drawn)", "activity change, negative = growth inhibition": "inactive: -5.55%"}
{"smiles": "CCC(CC)c1nnc(NC(=O)COc2ccc3c(C)cc(=O)oc3c2)s1", "activity change, negative = growth inhibition": "inconclusive: -36% [inhibitor]"}
{"smiles": "COC(=O)c1c(-c2ccccc2)[nH]c(-c2nccc3ccccc23)c1C(=O)OC", "Potency": "inconclusive: 29.1 µM [inhibitor, single point]"}
{"smiles": "Cc1ccc(C2C(C=Nc3c(C)n(C)n(-c4ccccc4)c3=O)=C(c3ccccc3)Oc3ccccc32)cc1", "note": "(stereo not drawn)", "Potency": "inconclusive: 29.1 µM [inhibitor, single point]"}
{"smiles": "CSc1nnc2c3c4c(sc3nc(-n3nc(C)cc3C)n12)COC(C)(C)C4", "Potency": "inconclusive: 29.1 µM [inhibitor, single point]"}
{"smiles": "CCc1c(C)nc(SCC(=O)c2ccc(C)c(C)c2)[nH]c1=O", "Potency": "inconclusive: 23.1 µM [inhibitor, partial curve, poor fit]"}
{"smiles": "COc1ccccc1N1CCN(C(=O)c2cccs2)CC1", "activity change, negative = growth inhibition": "inactive: -19.7%"}
{"smiles": "Cc1ccc(S(=O)(=O)CCC(=O)Nc2cc(Cl)ccc2-n2cncn2)cc1", "Potency": "inconclusive: 16.4 µM [inhibitor, single point]"}
{"smiles": "CC(=O)c1sc(N/N=C\\c2ccccc2O)nc1C", "Potency": "active: 1.03 µM"}
{"smiles": "CCc1ccc(S(=O)(=O)c2cn(CC)c3cc(N4CCCCC4)c(F)cc3c2=O)cc1", "Potency": "inconclusive: 29.1 µM [inhibitor, single point]"}
{"smiles": "COc1cc(NCC2COc3c(ccc(OC)c3OC)C2=O)c([N+](=O)[O-])cc1OC", "note": "(stereo not drawn)", "Potency": "active: 18.4 µM"}
{"smiles": "COCCN1CCC(CNCc2c(C(=O)N3CCCCC3)nc3c(C)cccn23)C1", "note": "(stereo not drawn)", "activity change, negative = growth inhibition": "inactive: -11.7%"}
{"smiles": "CCCc1cc(=O)[nH]c(SCC(=O)c2ccc3c(c2)NC(=O)CO3)n1", "activity change, negative = growth inhibition": "inactive: -3.91%"}
{"smiles": "Cc1ccccc1CN1[C@@H](CC2CCCCC2)COCCS1(=O)=O", "Potency": "inconclusive: 35.5 µM [inhibitor, single point] and inconclusive: 18.4 µM [inhibitor, single point]"}
{"smiles": "COc1ccc(N2CCN(C(=O)c3cc4c(-c5ccc(Cl)cc5)nn(C)c4s3)CC2)cc1", "Potency": "inconclusive: 18.4 µM [inhibitor, single point]"}
{"smiles": "CC(C(=O)NC1CCCc2ccccc21)N1CCN(Cc2ccc3c(c2)OCO3)CC1", "note": "(stereo not drawn)", "Potency": "inconclusive: 29.1 µM [inhibitor, single point]"}
{"smiles": "COc1ccc(/C(C)=N/Nc2ncc(Cl)cc2Cl)c(O)c1", "Potency": "inconclusive: 0.0082 µM [inhibitor, full curve, poor fit]"}
{"smiles": "Cc1c(C(=O)N2CCc3ccccc3C2)oc2ccc(Br)cc12", "Potency": "inconclusive: 29.1 µM [inhibitor, single point]"}
{"smiles": "CNCC/C=C1/c2ccccc2CSc2ccccc21", "Potency": "inconclusive: 25.9 µM [inhibitor, single point]"}
{"smiles": "CC(C)(C)N1CSC(=S)N(Cc2ccccc2)C1", "Potency": "active: 5.17 µM"}
{"smiles": "COc1cccc(NC(=O)c2cc3c(=O)n4ccccc4nc3n(CC(C)C)c2=N)c1", "Potency": "active: 6.51 µM"}
{"smiles": "COc1ccccc1Cc1c(-c2ccccc2)nc2ccc(Cl)cn12", "Potency": "inconclusive: 29.1 µM [inhibitor, single point]"}
{"smiles": "O=c1/c(=C\\c2ccc(O)cc2)sc2n1C(c1ccccc1)C(c1ccccc1)=NN=2", "note": "(stereo not drawn)", "Potency": "inconclusive: 29.1 µM [inhibitor, single point]"}
{"smiles": "COc1ccc2c(CNCCc3cccs3)c(C(=O)O)n(Cc3cccc(F)c3)c2c1", "Potency": "inconclusive: 29.1 µM [inhibitor, single point]"}
{"smiles": "COc1cc(O)c(C(CC(=O)N2CCN(c3ccccc3)CC2)c2ccc(N(C)C)cc2)c(OC)c1", "note": "(stereo not drawn)", "Potency": "active: 23.1 µM"}
{"smiles": "Cc1ccc(C)c(CN2CCC(CNC(=O)CCc3nnc4ccc(N5CCC(C)CC5)nn34)CC2)c1", "Potency": "inconclusive: 25.9 µM [inhibitor, single point]"}
{"smiles": "O=C(N/N=C/c1ccccn1)c1cccnc1", "Potency": "inconclusive: 25.9 µM [inhibitor, single point]"}
{"smiles": "Cc1cc(/C=C2/NC(=O)N(Cc3ccccc3F)C2=O)c(C)n1C", "Potency": "inconclusive: 18.4 µM [inhibitor, single point]"}
{"smiles": "Cc1ccc(-c2cc(C(=O)Nc3ccccc3C)c3ccccc3n2)o1", "Potency": "inconclusive: 29.1 µM [inhibitor, single point]"}
{"smiles": "CCc1ccc(Nc2sc(C(=O)c3ccc(F)cc3)c(N)c2S(=O)(=O)c2ccccc2)cc1", "Potency": "inconclusive: 29.1 µM [inhibitor, single point]"}
{"smiles": "OCCn1c(-c2ccc3c(c2)OCO3)csc1=Nc1ccccc1", "Potency": "active: 16.4 µM"}
{"smiles": "CCCN1CCN(C(=S)Nc2ccc3nc(N4CCN(CC)CC4)cc(C)c3c2)CC1", "Potency": "inconclusive: 29.1 µM [inhibitor, single point]"}
{"smiles": "Clc1ccc(-c2nnc(SCc3nc4ccccc4[nH]3)o2)c(Cl)c1", "Potency": "inconclusive: 25.9 µM [inhibitor, single point]"}
{"smiles": "COc1cccc(NS(=O)(=O)c2ccc(-n3cccn3)cc2)c1", "Potency": "inconclusive: 18.4 µM [inhibitor, partial curve]"}
{"smiles": "CC(=O)NCCc1nc2cc(NS(=O)(=O)c3ccccc3)ccc2n1C", "activity change, negative = growth inhibition": "inactive: 5.9%"}
